Assay results published in ChEMBL document CHEMBL1201862, “PubChem BioAssay data set” (2004).

These compounds were tested on NCI-H322M (assay: NCI-60 cell line screen, 48 h).

Row | SMILES | GI50
1 | CC#CCCN(CC#N)Cc1ccccc1 | inactive: > 100 µM
2 | C#C[C@]1(O)CCC2C3CCc4cc(Oc5nc(F)nc(-c6c7cc8ccccc8cc7c7n6CCS7)n5)ccc4C3CCC21C (some centres not stated) | inactive: 92 µM
3 | COC(=O)C1=C(C)NC(C)=C([N+](=O)[O-])C1c1cccc(NO)c1 (configuration not stated) | inactive: 11.2 µM
4 | CCOP(=O)(OCC)OC1C=CC2CCC1C2 (configuration not stated) | inactive: > 100 µM
5 | CN(C)/C=N\c1cccc2cnccc12 | inactive: > 100 µM
6 | O=CN/C=C/c1ccccc1 | inactive: > 100 µM
7 | COc1cc2ccc(/C=C\[N+](=O)[O-])cc2cc1OC | inactive: 13.1 µM
8 | CC(O)(CNS(=O)(=O)c1ccccc1)c1ccccc1 (configuration not stated) | inactive: > 100 µM
9 | Cc1ccc(-n2c(=S)[nH]c3ccc(Br)cc3c2=O)cc1 | inactive: > 100 µM
10 | COc1ccc(C(=O)C(c2ccc(OC)cc2)C2(O)C(=O)Nc3c(C)cc(Cl)cc32)cc1 (configuration not stated) | inactive: > 100 µM
11 | O=C(CNCc1ccccc1)Oc1c(Cl)c(Cl)c(Cl)c(Cl)c1Cl | inactive: 26.7 µM
12 | O=C(NC(Cc1ccc(I)cc1)C(=O)O)c1ccc(Cl)cc1 (configuration not stated) | inactive: > 100 µM
13 | C=C1C(=O)[C@]23[C@H](O)[C@H]1CC[C@H]2[C@@]12CO[C@@]3(O)C[C@@H]1C(C)(C)CC[C@@H]2O [MEGATHYRIN A] | inactive: 9.91 µM
14 | O=C1c2ccccc2C(=O)c2c1ccc1c2N=C(c2ccc(Br)cc2)CC(c2cccc3ccccc23)N1 (configuration not stated) | inactive: > 100 µM
15 | CC1=NOC2(C1)C(=O)Nc1ccccc12 (configuration not stated) | inactive: > 100 µM
16 | CO[C@H]1C[C@](C)(O)Cc2cc3c(c(O)c21)C(=O)c1c(O)cc2c(c1C3=O)O[C@@H]1O[C@@]2(C)[C@H](O)[C@@H](N(C)C)[C@@H]1O | inactive: 1.98 µM
17 | CC(C(O)c1ccccc1)C(O)(C(F)(F)F)C(F)(F)F (configuration not stated) | inactive: > 100 µM
18 | O=C(CCc1cccc(O)c1)NCCc1ccc(O)cc1 | inactive: > 100 µM
19 | COC(=O)[C@@H]1O[C@]12C(CO[Si](C)(C)C(C)(C)C)OC(n1ccc(=O)[nH]c1=O)C2O[Si](C)(C)C(C)(C)C (some centres not stated) | inactive: 35.6 µM
20 | COC(=O)C(Cc1ccc(Oc2cc(CC(NC(=O)c3ccccc3)C(=O)OC)ccc2OC)cc1)NC(=O)c1ccccc1 (configuration not stated) | inactive: 23.6 µM
21 | Oc1ccccc1/C=N/N1C(=S)N(C23CC4CC(CC(C4)C2)C3)C(=N\c2ccccc2)/C1=N/c1ccccc1 | inactive: > 100 µM
22 | O=C(NC1=C(Cl)C(=O)c2ccccc2C1=O)c1ccc(F)cc1 | inactive: 12.9 µM
23 | CC1=NN(C(=O)c2ccc(C)cc2)C(=O)C1/N=N/c1ccccc1C(=O)O (configuration not stated) | inactive: > 100 µM

Row | SMILES | GI50
24 | N#CCCCC[N+]12CN3CN(CN(C3)C1)C2 | inactive: > 100 µM
25 | Cc1nc(Nc2ccccc2Cl)sc1C(=O)CC(=O)C(=O)Nc1c(Cl)cccc1Cl | inactive: 38.8 µM
26 | C=CCCCCn1c2ccccc2c2c(C)c3cnccc3c(C)c21 | inactive: 14.6 µM
27 | O=C(NN=C1CCCCC1)NN=C1CCCCC1 | inactive: > 100 µM
28 | O=C(O)c1ccccc1/C=C1/Nc2ccccc2C1=O | inactive: > 100 µM
29 | CCN1C/C(=C\c2ccc(Cl)cc2)c2[nH]c(=O)c(C#N)c(-c3ccc(Cl)cc3)c2C1 | inactive: > 100 µM
30 | CC(C)(C)c1cc2c(OP(c3ccccc3)c3ccccc3)c(c1)Cc1cc(C(C)(C)C)cc(c1OP(c1ccccc1)c1ccccc1)Cc1cc(C(C)(C)C)cc(c1OP(c1ccccc1)c1ccccc1)Cc1cc(C(C)(C)C)cc(c1OP(c1ccccc1)c1ccccc1)C2 | inactive: > 5 µM
31 | C=C1CC2(CC(c3ccccc3OC)OC(c3ccccc3OC)C2)OC1=O (configuration not stated) | inactive: 15.1 µM
32 | CC1(C)CC(C)(C)C1=NNC(N)=O | inactive: > 100 µM
33 | N#CC(NC12CC3CC(CC(C3)C1)C2)c1ccc2c(c1)OCO2 (configuration not stated) | inactive: > 100 µM
34 | C=C1C[C@]23CCC4C(C)(C)C(=O)CC[C@]4(C)C2C[C@H]1C(O)C3=O (some centres not stated) | inactive: > 75 µM
35 | O=C(/C=C/c1ccc(OCC(=O)N2CCN(c3ccccc3)CC2)cc1)c1ccccc1 | inactive: 39 µM
36 | O=C1c2ccccc2C(=O)N1[C@@H](Cc1ccccc1)C(=O)n1cccc1CO | inactive: > 100 µM
37 | CCOC(=O)N1C(c2ccccc2)C=CC(c2ccccc2)N1C(=O)OCC (configuration not stated) | inactive: > 100 µM
38 | Cc1nc(N)sc1C(=O)/C=C\c1ccc2c(c1)OCO2 | inactive: > 100 µM
39 | O=[N+]([O-])C(=C(NCc1ccccc1)NCc1ccccc1)C(Cl)=C(Cl)Cl | inactive: > 100 µM
40 | O=C(NC(Cc1c[nH]c2ccccc12)C(=O)O)/C(=C/c1ccccc1)NC(=O)c1ccccc1 (configuration not stated) | inactive: > 100 µM
41 | CC1(c2nc3ccccc3[nH]2)CCC(C#N)C(C)(C)O1 (configuration not stated) | inactive: > 100 µM
42 | Cn1c2ccccc2c2ccc3c(c21)C(=O)c1ccc2c4ccccc4n(C)c2c1C3=O | inactive: > 100 µM
43 | COC1OC(C(C)O)C2OC(C)(C)OC12 (configuration not stated) | inactive: > 100 µM
44 | COC(c1cccc(C(O)(C(F)(F)F)C(F)(F)F)c1)(C(F)(F)F)C(F)(F)F | inactive: 20.7 µM
45 | Cc1c2cc[n+](C)cc2c(C)c2c1[nH]c1ccc(Cl)cc12 | active: 0.933 µM
46 | CP1(=O)CCCCC1 | inactive: > 100 µM

Row | SMILES | GI50
47 | O=C(O)CCC(NC(=O)c1ccc(Oc2nc3ccccc3nc2C(=O)O)cc1)C(=O)O (configuration not stated) | inactive: > 100 µM
48 | COC(=O)/C(=N\NC(C)(C)C)C(C(=O)OC)C(=O)C(=O)Nc1cc(Cl)ccc1Cl (configuration not stated) | inactive: > 100 µM
49 | O=C1C=CC2=[N+]([O-])C(c3ccccc3)(c3ccccc3)/C(=N\c3ccccc3)C2=C1 | inactive: 7.08 µM
50 | COc1cc2ccnc3c2c(c1O)N(C)C=C3 | inactive: 17.4 µM
51 | COc1nc2[nH]ccc2c(=O)[nH]1 | inactive: > 100 µM
52 | Oc1cc(-c2ccccn2)nc2ccc(Cl)cc12 | inactive: 51.3 µM
53 | CC(C)Oc1c(O)c2c3c(oc(=O)n3C=CC2c2ccccc2F)c1OC(C)C (configuration not stated) | inactive: 35.6 µM
54 | CCOC(=O)c1cn2c(n1)sc1cc(F)ccc12 | inactive: > 100 µM
55 | CC(C)(C)c1cc2ccc(C(N)=O)cc2c(=O)[nH]1 | inactive: > 100 µM
56 | CCOC(=O)c1ccc(Nc2nc3ccccc3n3cccc23)cc1 | inactive: 69.2 µM
57 | NC(=S)Nc1nnc(-c2ccc(-c3nnc(NC(N)=S)o3)cc2)o1 | inactive: > 100 µM
58 | COC(=O)c1sc(=S)sc1SCc1ccccc1CSc1sc(=S)sc1C(=O)OC | inactive: > 100 µM
59 | CCN1/C(=C/C#C/C(C)=C\c2sc3ccccc3[n+]2CC)Sc2ccccc21 | inactive: 5.94 µM
60 | COc1ccc(-c2[nH]c(-c3ccc(OC)cc3)c(-c3ccccn3)c2-c2ccccn2)cc1 | inactive: > 100 µM
61 | Cn1c(CCC2(C)Cc3ccccc3C(=O)O2)cc2ccccc2c1=O (configuration not stated) | inactive: 28.8 µM
62 | O=C1NC(Nc2cccc(Cl)c2)=N/C1=C\c1ccc(Cl)c(Cl)c1 | inactive: 4.46 µM
63 | c1ccc2c(c1)c1ccccc1n2Cn1c2ccccc2c2ccccc21 | inactive: > 100 µM
64 | O=C(O)c1nc2ccc(C(F)(F)F)cc2nc1Nc1ccc(Cl)c(Cl)c1 | inactive: 14.4 µM
65 | COC(=O)[C@@H]1c2[nH]c3ccccc3c2C[C@@H]2c3ccccc3NC(=O)[C@@H]21 | inactive: > 96.2 µM
66 | CCCCCC(=O)N[C@H]1CCc2cc(OC)c(OC)c(OC)c2-c2ccc(SC)c(=O)cc21 | active: 0.0282 µM
67 | COc1ccc(NC(=S)NNC(=O)c2nsc3ccccc23)cc1 | inactive: 26.2 µM
68 | CCN(CC)Cc1nc2sc3c(c2c(=O)n1-c1ccccc1)CCCC3 | inactive: 33.7 µM
69 | O=C(NC/C(Cl)=C/Cl)Nc1c2ccccc2nc2ccccc12 | inactive: > 100 µM

Row | SMILES | GI50
70 | O=C(O)CN1CCN2CCOCCOCCN(CC1)CCN(CC(=O)O)CC2 | inactive: > 100 µM
71 | CCC(COC(=O)CC[C@@H](NC(=O)C(C)NC(=O)C(C)OC1C(O)C(CO)OC(OCc2ccccc2)C1NC(C)=O)C(N)=O)NC1c2ccccc2Nc2cccc([N+](=O)[O-])c21 (some centres not stated) | inactive: > 100 µM
72 | Cc1cc(=O)n(-c2ccccc2C)c(C)n1 | inactive: > 100 µM
73 | N#CC(C(=O)CCC(=O)Nc1ccc(Cl)cc1)c1ccc(Cl)cc1 (configuration not stated) | inactive: > 100 µM
74 | COC(=O)c1c(C(=O)OC)c(C(c2ccccc2)c2ccccc2)n(-c2ccccc2)c1Cl | inactive: > 10 µM
75 | CN1CCC(SC2Cc3cc(Cl)ccc3Sc3ccccc32)CC1 (configuration not stated) | inactive: 13.2 µM
76 | CN(C)CCCN1c2ccccc2CCc2cc([N+](=O)[O-])ccc21 | inactive: 17.1 µM
77 | COc1nc(C)nc2sc3c(c12)CCCC3 | inactive: > 100 µM
78 | CC(=O)NNc1nc(C)c(C(/C=C/c2ccc(Cl)cc2)=N/NC(=S)NN)s1 | inactive: > 100 µM
79 | COc1cc2c(c(O)c1OC)C(=O)C1CCC(=O)N1C2c1cccc2ccccc12 (configuration not stated) | inactive: > 100 µM
80 | COC(=O)/C(C#N)=C1\NN=NN1c1ccc(OC)cc1 | inactive: > 100 µM
81 | O=c1oc2c(Br)c(O)c(Br)cc2c2ccccc12 | inactive: 25.1 µM
82 | Cc1cccc(-c2cc(O)c3c(C)ccnc3n2)c1 | active: 0.541 µM
83 | O=C1Nc2ccc(S(=O)(=O)O)cc2/C1=N/Nc1ccccc1[N+](=O)[O-] | inactive: > 100 µM
84 | O=c1[nH]nc(Cc2ccccc2)n1/N=C/c1ccc(/C=N/n2c(Cc3ccccc3)n[nH]c2=O)cc1 | inactive: > 100 µM
85 | COc1cc(CC2c3cc(OC)c(OC)cc3CCN2C)c(C(=O)O)cc1OC (configuration not stated) | inactive: > 100 µM
86 | Cc1ncc([N+](=O)[O-])n1CCNCCCCn1ccnc1[N+](=O)[O-] | inactive: > 100 µM
87 | O=C1CNC(=O)/C(=C/c2c[nH]c3ccccc23)N1 | inactive: > 100 µM
88 | O=C(CNc1ccccc1[N+](=O)[O-])Nn1cnc2ccc(S(=O)(=O)Nc3ccccc3[N+](=O)[O-])cc2c1=O | inactive: > 100 µM
89 | Cc1ccc(NC(=O)C(=O)C2C(=O)NC(=O)NC2=O)cc1C | inactive: > 100 µM
90 | COc1cc2c(c(OC)c1OC)-c1ccc(SC)c(=O)cc1C(CC(=O)Oc1cccc(C#N)c1)C2 (configuration not stated) | active: 0.449 µM
91 | O=C(Nc1nc2ccccc2n1Cc1ccccc1)NC12CC3CC(CC(C3)C1)C2 | inactive: 23.6 µM
92 | COc1ccc2c(c1)CCC(OS(=O)(=O)CC13CCC(CC1=O)C3(C)C)C2=O (configuration not stated) | inactive: 26.5 µM

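A five-concentration, 48-hour dose response in 96-well plates underlies each endpoint, interpolated linearly between surrounding concentrations. GI50: concentration for 50% inhibition of growth.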 The source made the active and inactive calls. Rule as the data show it: active = GI50 up to about 1.1 µM and inactive = higher.
